# Source: PubChem BioAssay (NCATS)
# “And” between values parts separate entries of the source, which are not always exact repeats. Equal entries are not always repeated. The shares of active, inactive and inconclusive entries below differ from those in the screen. A potency beside an inconclusive call is a rough fit, not a confirmed value. The source made the active and inactive calls. The call rests on the fitted dose curve; in most records, active means well fitted curve in the direction sought with a large enough effect; inconclusive means small, poorly fitted or top-dose-only effect, or another doubt; inactive means no such curve, though single readings can be large; an effect the other way counts as inactive or inconclusive.
# Legend:
# [1] = qHTS of pediatric cancer cell lines to identify multiple opportunities for drug repurposing: Primary screen for SJ-GBM2 cells (AID 1347091); details: SJ-GBM2 viability, CellTiter-Glo luminescence, 48 h; series mostly up to 46 µM
# In short: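 Viability measured as metabolically active cells via CellTiter-Glo luminescence following 48 hours of compound exposure, 11-point dilutions in confirmatory testing. 500-1,000 cells/well plated 5 hours before dosing; controls were DMSO and 2.3 µM bortezomib.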
# [2] = qHTS of pediatric cancer cell lines to identify multiple opportunities for drug repurposing: Primary screen for A673 cells (AID 1347092); details: A673 Ewing sarcoma viability, CellTiter-Glo ATP luminescence, 48 h; activity change, negative = cytotoxic: at 46 µM (top of the series); further: nearly all actives have a fitted effect of over 45% in size
# In short: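 Luminescence from CellTiter-Glo, taken after 15 min at room temperature, served as the proxy for metabolically active cells following 48 h treatment. Both potency and efficacy were taken from curves fitted to the titration data.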
# [3] = qHTS of pediatric cancer cell lines to identify multiple opportunities for drug repurposing: Primary screen for SK-N-MC cells (AID 1347093); details: SK-N-MC viability, CellTiter-Glo luminescence, 48 h; activity change, negative = cytotoxic: at 46 µM (top of the series)
# In short: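 Metabolically active cells were quantified by ATP-dependent luminescence (CellTiter-Glo, 15 min at room temperature) following 48 h treatment. Cells had been plated at 500-1,000 per well and settled for 5 h beforehand.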
# [4] = qHTS of pediatric cancer cell lines to identify multiple opportunities for drug repurposing: Primary screen for BT-37 cells (AID 1347094); details: BT-37 viability, CellTiter-Glo luminescence, 48 h; series mostly up to 57.3 µM
# In short: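 500-1,000 cells/well; 5 h pre-incubation 37 °C/5% CO2; compound pinned; 48 h; CellTiter-Glo, 15 min RT; luminescence. MIPE 11-pt from 0.78 nM, NPC 8-pt from 0.59 nM final. Bortezomib 2.3 µM final as positive control.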
# Potency means the concentration at half of the fitted maximal effect; tags describe the fitted curve by direction and shape.
Compound,Potency [1],Potency [2],Potency [3],Potency [4]
O=c1[nH]c(=O)n(C2CCCO2)cc1F (stereo not given),inactive,inactive,–,–
Cc1ccc(N(CC2=NCCN2)c2cccc(O)c2)cc1,"inconclusive: 29.6 µM [cytotoxic, single point]",–,"inconclusive: 23.5 µM [cytotoxic, partial curve] and inconclusive: 4.2 nM [cytotoxic, full curve, poor fit]","inconclusive: 21.7 µM [cytotoxic, partial curve]"
NC12CC3CC(CC(C3)C1)C2,"inconclusive: 20.9 µM [cytotoxic, partial curve]",–,–,"inconclusive: 43.2 µM [cytotoxic, single point]"
CC=CCC=CCCC(=O)[C@H]1O[C@@H]1C(N)=O,"inconclusive: 26.4 µM [cytotoxic, single point]","inconclusive: 23.5 µM [cytotoxic, single point]","inconclusive: 26.4 µM [cytotoxic, single point]",–
c1coc(CNc2ncnc3nc[nH]c23)c1,"inconclusive: 20.9 µM [cytotoxic, single point]",–,–,–
Cn1cc(-c2ccc3nnc(C(F)(F)c4ccc5ncccc5c4)n3n2)cn1,"inconclusive: 0.0059 µM [cytotoxic, full curve]",–,inactive,"inconclusive: 17.2 µM [cytotoxic, partial curve]"
Nc1nc(OCc2ccccc2)c2[nH]cnc2n1,"inconclusive: 20.9 µM [cytotoxic, single point]",–,"inconclusive: 13.2 µM [cytotoxic, partial curve, poor fit]","inconclusive: 24.3 µM [cytotoxic, partial curve, poor fit]"
Cc1cc2c(cc1C1(c3ccc(C(=O)O)cn3)CC1)C(C)(C)CCC2(C)C,"inconclusive: 14.8 µM [cytotoxic, partial curve]","inconclusive: 23.5 µM [cytotoxic, partial curve, poor fit]",–,–
NC(=O)c1ccc(N(C(N)=O)c2c(F)cccc2F)nc1-c1ccc(F)cc1F,inactive,"inconclusive: 29.6 µM [cytotoxic, single point]","inconclusive: 33.2 µM [cytotoxic, single point]",–
CS(=O)(=O)OCCCCOS(C)(=O)=O,"inconclusive: 20.9 µM [cytotoxic, partial curve]",–,–,inactive
CC1(C)O[C@@H]2C[C@H]3[C@@H]4CCC5=CC(=O)C=C[C@]5(C)[C@@H]4[C@@H](O)C[C@]3(C)[C@]2(C(=O)CO)O1,"inconclusive: 3.72 µM [cytotoxic, partial curve]",–,–,–
Cc1nc2n(c(=O)c1CCN1CCC(c3noc4cc(F)ccc34)CC1)CCCC2,"inconclusive: 26.4 µM [cytotoxic, partial curve, poor fit]",–,–,–
Cc1nccn1CC1CCc2c(c3ccccc3n2C)C1=O (stereo not given),"inconclusive: 8.33 µM [cytotoxic, partial curve]",–,"inconclusive: 26.4 µM [cytotoxic, single point]",inactive
C=C1C(=O)OC(CCCCCCCC)C1C(=O)O (stereo not given),active: 20.9 µM,–,"inconclusive: 8.33 µM [cytotoxic, full curve]",–
c1ccc(-c2nn3c(c2-c2ccnc4cc(OCCN5CCOCC5)ccc24)CCC3)nc1,"inconclusive: 5.9 µM [cytotoxic, partial curve, poor fit]","inconclusive: 23.5 µM [cytotoxic, partial curve]",inactive,"inconclusive: 6.85 µM [cytotoxic, partial curve, poor fit]"
CC(C)(Cc1ccc2ccccc2c1)NC[C@@H](O)COc1cccc(Cl)c1C#N,"inconclusive: 11.8 µM [cytotoxic, partial curve]",–,"inconclusive: 37.2 µM [cytotoxic, single point]",active: 19.3 µM
CCCCCCCCCCCC(CC1OC(=O)C1CCCCCC)OC(=O)C(CC(C)C)NC=O (stereo not given),active: 9.35 µM,–,"inconclusive: 9.35 µM [cytotoxic, full curve]",–
Cc1ccc(O)c(C(CCN(C(C)C)C(C)C)c2ccccc2)c1 (stereo not given),inactive,–,"inconclusive: 37.2 µM [cytotoxic, single point]",–
O=C(CO)N1CCC(c2[nH]nc(-c3ccc(Cl)cc3)c2-c2ccncn2)CC1,"inconclusive: 0.526 µM [cytotoxic, full curve, poor fit]",–,–,"inconclusive: 8.63 µM [cytotoxic, partial curve]"
CCNC(=O)Nc1ccc2ncc(Nc3ccc(C)cc3)nc2n1,"inconclusive: 33.2 µM [cytotoxic, single point]","inconclusive: 0.0047 µM [cytotoxic, full curve, poor fit]",–,–
CC(C)Nc1cc(C(F)(F)F)cc2nc(NC(=O)c3cccnc3)nn12,"inconclusive: 16.6 µM [cytotoxic, partial curve]","inconclusive: 11.8 µM [cytotoxic, partial curve]",active: 16.6 µM,–
CS(=O)(=O)c1ccc(C2=C(c3ccccc3)C(=O)OC2)cc1,inactive,–,–,–
CCC(=O)N[C@H]1CC[C@H](C(=O)N(C)c2ccc(-c3nc4ccccc4o3)cc2)C1,"inconclusive: 13.2 µM [cytotoxic, partial curve]",–,–,"inconclusive: 19.3 µM [cytotoxic, partial curve]"
COc1ccc2nc3cc(Cl)ccc3c(Nc3cc(CN4CCCC4)c(O)c(CN4CCCC4)c3)c2n1,"inconclusive: 16.6 µM [cytotoxic, partial curve]",–,"inconclusive: 37.2 µM [cytotoxic, single point]","inconclusive: 43.2 µM [cytotoxic, single point]"
